Laboratory results from PubChem BioAssay AID1347120 (National Center for Advancing Translational Sciences (NCATS), 2019).
About 930 (0.24%) of roughly 390,000 compounds were called active. The inconclusive results got no clear call from the source; some entries with a clear call stand among them for comparison. The call rests on the fitted dose curve; in most records, active means well fitted activation curve with a large enough effect; inconclusive means small, poorly fitted or top-dose-only effect; inactive means no such curve, though single readings can be large or run the other way. Where the call is inconclusive, the potency comes from a doubtful curve fit.

Test: qHTS for Suppressors of FUS Proteinopathy: Primary screen using FUS-linked yeast assay; further: nearly all actives have a fitted effect of over 55% in size
Details: S. cerevisiae FUS-expressing, OD600, 24 h; Potency: growth rescue; series mostly up to 76.6 µM
In short: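 Yeast FUS proteinopathy model; galactose-induced FUS (2%), starting OD 0.005. Cpds in dilution series, 24hr, 30C, 99% humidity. Abs 600 nm growth. Pos ctrl CP55940 (top 92uM final); neg ctrl DMSO.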
Potency means the concentration at half of the fitted maximal effect; tags describe the fitted curve by direction and shape.

| Compound | Potency |
| --- | --- |
| Cc1ccccc1Cn1c(=O)n(CC2CCC(C(=O)N3CCC(C)CC3)CC2)c(=O)c2sccc21 (configuration not stated) | inconclusive: 11.2 µM [activator, partial curve] |
| Cc1cc(C)c(NC(=O)C2CCN(C(=O)N3CC(C)Oc4ccc(Cl)cc43)CC2)c(C)c1 (configuration not stated) | inconclusive: 35.5 µM [activator, single point] |
| CC(C)Oc1ccc(C(=O)O)cc1 | inactive |
| Cc1ccc(-c2nc3cc(Cl)ccc3o2)cc1NC(=O)c1cc2ccccc2o1 | inactive |
| CN(C(=O)CSc1nc2ccc(NC(=O)COc3ccc(F)cc3)cc2s1)c1ccccc1 | inconclusive: 20 µM [activator, single point] |
| O=C(c1ccccc1Cl)N1CCCC(c2nc3c(nnn3Cc3ccc(F)cc3F)c(=O)[nH]2)C1 (configuration not stated) | inconclusive: 28.2 µM [activator, single point] |
| CC(C)Sc1ncc(Cl)c(C(=O)Nc2nc3ccc(S(C)(=O)=O)cc3s2)n1 | inactive |
| COc1ccc(-c2[nH]ncc2/C=C(/C#N)C(=O)NC2CCCCC2)cc1 | inconclusive: 44.7 µM [activator, single point] |
| Cc1ccc(-c2nnn(C(C)C(=O)N3c4ccccc4CCc4ccccc43)n2)cc1 (configuration not stated) | inactive |
| Cc1ccc(NCc2cccn2-c2nnc(N3CCC(C(=O)NCc4ccccc4C)CC3)s2)cc1 | inconclusive: 35.5 µM [activator, single point] |
| Cc1ccc(-n2ncc(C(=O)NCc3ccc4c(c3)OCO4)c2C2CCN(C(=O)OC(C)(C)C)CC2)cc1C | active: 25.1 µM |
| Cc1sc2ncnc(SCC(=O)Nc3ccc(S(=O)(=O)N4CCOCC4)cc3)c2c1C | inconclusive: 35.5 µM [activator, partial curve, poor fit] |
| Cn1c2ccccc2c(=O)c2cc(C#CC3=CCCCC3)ccc21 | inconclusive: 31.6 µM [activator, single point] |
| Cc1ccc(CNC(=O)c2cc(C3CC3)nc3c2c(C)nn3-c2cccc(Cl)c2C)cc1 | inactive |
| O=C(O)CCCC(=O)N1CCN(C(c2ccccc2)c2ccccc2)CC1 | inconclusive: 31.6 µM [activator, single point] |
| Cc1cccn2c(Nc3ccc4c(c3)OCCO4)c(-c3ccc(Br)o3)nc12 | inconclusive: 50.1 µM [activator, single point] |
| COc1cccc(-c2cccc(-c3nc(C(=O)Nc4ccc(-c5ccccc5)cc4)cc4c3[C@H](CCO)N(S(=O)C(C)(C)C)C4)c2)c1 (some centres not stated) | active: 28.2 µM |
| Cc1nnc2sc(SCC(=O)N3CCCCC3)nn2c1=O | inactive |
| COc1cc(-c2nc3n(n2)C(c2ccc(F)cc2)C(C(N)=O)=C(C)N3)cc(OC)c1OC (configuration not stated) | inactive |
| COC(=O)[C@]12C[C@H](CC(=O)NCC3CCCCC3)C(=O)N(CCc3ccc(OC)c(OC)c3)C1=C[C@H](COCc1ccccc1)O[C@@H]2C | active: 10 µM |
| COc1ccc(S[C@]2(C(=O)N3CCCC3)CC(=O)N[C@@H]2c2ccc(OC)cc2)cc1 | inconclusive: 50.1 µM [activator, single point] |

| Compound | Potency |
| --- | --- |
| CN(C)c1cccc(N=C2C=C(N3CCOCC3)CC(C)(C)C2)c1 | inactive |
| COc1ccc(NC(=O)CSc2nc(-c3ccc(OC)cc3)cc(=O)[nH]2)cc1 | inactive |
| COc1ccc(-n2c(SCC(=O)Nc3ccc4cn[nH]c4c3)nnc2-c2ccccc2)cc1 | inactive |
| Cc1ccc(C)c(Oc2cc(F)nc(N)n2)c1 | inactive |
| Cc1cccc2cc3c(nc12)SC(=NCC1CCCO1)N(Cc1ccco1)C3 (configuration not stated) | inconclusive: 17.8 µM [activator, single point] |
| COc1ccc(CC(N)c2csc(NC(=O)NC(c3ccccc3)c3ccccc3)n2)cc1 (configuration not stated) | inconclusive: 44.7 µM [activator, single point] |
| C/C(CCc1ccco1)=N/NC(=O)CCC(=O)Nc1cccc(Cl)c1 | inconclusive: 14.1 µM [activator, partial curve, poor fit] |
| Cc1ccc(CSCc2nnc(SCC(=O)N3CCN(c4ccccc4)CC3)n2C)cc1 | inconclusive: 35.5 µM [activator, single point] |
| N#CC1(NC(=O)COC(=O)c2ccc(Cl)nc2)CCCCC1 | inconclusive: 50.1 µM [activator, single point] |
| O=C(Nc1ccc(Cl)cc1C(F)(F)F)C(Sc1cccc[n+]1[O-])c1ccccc1 (configuration not stated) | inactive |
| COc1ccc(CNC(=O)c2ccc(N3CCC4(CC3)CC(c3ccc(Cl)cc3)=NO4)c(NC(=O)c3ccccc3)c2)cc1 | inconclusive: 31.6 µM [activator, partial curve, poor fit] |
| COc1cccc(-c2nnc(NC(=O)c3ccc(Cl)s3)o2)c1 | inactive |
| Cn1c(COc2ccc(Cl)cc2)nnc1SCc1ncc(-c2ccccc2)o1 | inconclusive: 56.2 µM [activator, partial curve, poor fit] |
| Cc1ccc2c(c1)[C@@H]1[C@H](CO2)[C@H](c2ccccc2)[C@@]2(C)C(=O)N[C@H](C)C(=O)N12 | inactive |
| CC(=O)N1CCCc2cc(S(=O)(=O)N3CCCC(C(=O)NCc4ccccc4)C3)ccc21 (configuration not stated) | inconclusive: 39.8 µM [activator, single point] |
| CC(=O)N1CCN(S(=O)(=O)c2cccc(C(=O)Nc3ccc4c(c3)CCC4)c2)CC1 | inconclusive: 28.2 µM [activator, partial curve, poor fit] |
| O=C(CN1CCN(c2ccc(O)cc2)CC1)Nc1cc(S(=O)(=O)N2CCCC2)ccc1Cl | inconclusive: 1.78 µM [activator, full curve, poor fit] |
| CCN(CC)S(=O)(=O)c1cccc(C(=O)Oc2cccc(NC(=O)c3cccs3)c2)c1 | inconclusive: 31.6 µM [activator, single point] |
| CN(C)S(=O)(=O)N1CCC(n2cnc3cccnc32)CC1 | inactive |
| COc1ccccc1Cn1c(CNS(=O)(=O)c2ccc(CC(C)C)cc2)nc2cccnc21 | inconclusive: 31.6 µM [activator, single point] |
| O=C(C1CCCN(S(=O)(=O)c2cccc3nsnc23)C1)N1CCc2ccccc2C1 (configuration not stated) | inconclusive: 28.2 µM [activator, single point] |
